Read counts are not given, so values of variants with three or more changes are uncertain.

The chains are these.
B1: CPEB3 Ribozyme (parent)
chain: UAACAGGGGGCCACAGCAGAAGCGUUCACGUCGCAGCCCCUGUCAGAUUCUGGUGAAUCUGCGAAUUCUGCUGUAUAUCUC

Variants of B1 are the subject of the series. Nature of the series: self-cleavage, relative activity (ratio to wild type); higher = more cleavage; in vitro, sequencing. The method, boiled down:
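Relative activity compares each variant's cleaved/total read fraction with that of the unmutated ribozyme. To get these fractions, barcoded CPEB3 ribozyme libraries from rounds of error-prone PCR were transcribed with T7 RNA polymerase for 5 hours at 37°C and then given 15 min of DNase I treatment before EDTA was added. The RNAs were reverse transcribed with template switching and sequenced on Illumina, and DNA sequencing linked barcodes to variants. A minimum of 5 reads applied, and three batches were averaged.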
For the variant A13U C14A A15U C17A A65U C71U U78C, the self-cleavage is 0.23.

A13U A45G A56U: the self-cleavage was found to be 0.47. Consider A13U A21G U49C U72C, for which the self-cleavage was 0.07. Then A13U U31A U48C, with 0.27.

In the case of A13G U69A U76A, the self-cleavage came to 0.39. The figure for C14G U66C U76A is 0.47; for A13U A18U U43C A64G U66C U80C it is 0.06; for A13U A18U A57G it is 0.11.

As for A13U A15U U67C, the self-cleavage is 0.16. The figure for A13U A15U U67A is 0.28; for A13U A56U A75U U76C it is 1; for A13U U31G U60C it is 0.1.

In the case of C14G A15G U58C A64G, the self-cleavage was 0.28. The figure for A13U C14A U66C U67C U69A is 0.13; for A13U A21G U25C it is 0.08; for A13U A21G U41A A75G it is 0.15.

On to A13G U54C C81A, for which the self-cleavage was determined as 0.99.

Take A13G U48C U60C U67C A75G U78C: the self-cleavage was determined as 0.12. A13U U31A U49A U66A: the self-cleavage amounted to 0.2.

With A13U U25C U80C, the self-cleavage stood at 0.33. Then A13U C14A U25C U41A U67C U69A A77G, with 0.1; and A13U A20G C38A U51C U72C, with 0.15; and A13U U43C A56U U60A, with 0.08. Then A13U A47G U66C U80C, with 0.47. The figure for A13U A20U U41C U72C is 0.23. On to A13G U41C U48C U66C, for which the self-cleavage is 0.38. Take A13U A21G C37U: the self-cleavage amounted to 0.1. Then A13U U25A U41A C71G A77U, with 0.05; and A13U A18G U25C U51C A56U, with 0.07. Take C14U A15G A45U: the self-cleavage is 0.93. The figure for A13U A45U G53A U60C is 0.34; for A13U A18G A20U A28U G30A it is 0.25. The figure for A13U G55U A56U is 0.61. Then A13U A18G C38U C50A U54A U72C, with 0.11; and A13G U48C A56G U74C, with 0.2; and A13U A35G U41C A47U G70A, with 0.47. For A13U U25A U66C U72C, the self-cleavage amounted to 0.14. As for A13U A15G G33U U48C U51G U54A C62U, the self-cleavage stood at 0.04. Consider A13U C14U A56G U66C, for which the self-cleavage came to 0.31.

For A13G U43C U49C U51C, the self-cleavage is 0.2. Then A13U A18G G73A, with 1.05; and A13U U51C U60C U69A U72A A77U, with 0.32; and A13G U51C A64G U72C, with 0.43. Regarding A13G U41C U43C A57G U72A, the self-cleavage is 0.11. The figure for C14G C50A U69C is 0.14; for A13U G52A C62A it is 0.19. Then A13U C34U A35G U60C, with 0.15. The figure for A13U A35G A56G is 1.29; for A13U A21G U69C A75G it is 0.07.

Regarding A13U U60C U67C, the self-cleavage turned out to be 0.2. Then A13U U41C A65U, with 0.34.

Consider A13U C14U G33C C79U, for which the self-cleavage turned out to be 0.09. Then A13U A47G U60C U80C, with 0.3.

As for C14G U43C A64U, the self-cleavage was found to be 0.2. The figure for A13U A21G U49A C71A is 0.05; for A13U C17A A18G U51C U69A it is 0.1. Then A13U G19U C40U U48C U54A A64G U72A, with 0.07. The figure for A13U U25A U54A U60C U66C is 0.11; for A13U U25C C40U U72A U78C U80C it is 0.19.

As for A13U A20U G30C U54A U72C A77G, the self-cleavage turned out to be 0.04. The figure for A13U A28U A56G is 0.47. Then A13U U26C U74C, with 0.74; and A13U G24A U26C U49A U54A U76C, with 0.09. Consider A13U U26C U41C A47G U54C G61A, for which the self-cleavage was 0.13.

As to A13U U43G A47G U72A, the self-cleavage was determined as 0.08. Consider A13U U25G A57G U72A, for which the self-cleavage amounted to 0.08. A13U A18C A35G C40U G55U U69C U80C: the self-cleavage was 0.15. On to A13U U49A G73U, for which the self-cleavage is 1.04. The figure for A13U G33U U43A U60C A64G is 0.13; for A13G U41A A56G it is 0.12.

For the variant A13U A21U U25C U41A U49C A57G, the self-cleavage was 0.09. Regarding A13U A20G G33C U69C U78A, the self-cleavage stood at 0.05.

On to A13U A64G U67C U69C, for which the self-cleavage worked out at 0.18. The figure for A13U U25C C39U is 0.27. The figure for A13U A28G U43G A47G is 0.15; for A13U A28G U58A U78C U80C it is 0.14; for A13U U43A G63A it is 1.09. Then A13U A35G A45C A47U U51C, with 0.2; and A13U C17A U78C, with 0.1. Regarding A13U U25C C29U U51C A56G A57G, the self-cleavage came to 0.1. For C14G A21G U26C A47G, the self-cleavage turned out to be 0.08.

In the case of A13U G33A A35G U41C, the self-cleavage was 0.16.

A13U A15G U26A A28U U49A A56U A57G: the self-cleavage turned out to be 0.31.

(Values after the RNAGym collection of RNA variant scans (doi:10.1093/nar/gkz1192).)
